This note sets out measurements from PubChem BioAssay AID488969 (Vanderbilt High Throughput Screening Facility, 2010).

Structures are written as SMILES. In all, about 110,000 compounds were measured (“z-score”: median about -0.1, highest 2% from about 2 on). This is one part of the list. The source made the active and inactive calls.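 How the source made its calls: active means z-score in the third read window above 3 or below -3; inactive means the rest.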

For the experiment, the target named is Metabotropic glutamate receptor 8 (Rattus norvegicus) (UniProt P70579). Description: rat mGluR8 modulators via GIRK flux, primary screen, cell-based, thallium flux, HTS (AID 488969). Particulars: HEK293 rat mGluR8, GIRK (G protein-gated inwardly rectifying potassium channel) thallium flux, FluoZin2; at 10 µM; stronger effect = higher value; submaximal glutamate (EC20) added with thallium.
Sequence of UniProt P70579 (P70579 whole entry, looked up): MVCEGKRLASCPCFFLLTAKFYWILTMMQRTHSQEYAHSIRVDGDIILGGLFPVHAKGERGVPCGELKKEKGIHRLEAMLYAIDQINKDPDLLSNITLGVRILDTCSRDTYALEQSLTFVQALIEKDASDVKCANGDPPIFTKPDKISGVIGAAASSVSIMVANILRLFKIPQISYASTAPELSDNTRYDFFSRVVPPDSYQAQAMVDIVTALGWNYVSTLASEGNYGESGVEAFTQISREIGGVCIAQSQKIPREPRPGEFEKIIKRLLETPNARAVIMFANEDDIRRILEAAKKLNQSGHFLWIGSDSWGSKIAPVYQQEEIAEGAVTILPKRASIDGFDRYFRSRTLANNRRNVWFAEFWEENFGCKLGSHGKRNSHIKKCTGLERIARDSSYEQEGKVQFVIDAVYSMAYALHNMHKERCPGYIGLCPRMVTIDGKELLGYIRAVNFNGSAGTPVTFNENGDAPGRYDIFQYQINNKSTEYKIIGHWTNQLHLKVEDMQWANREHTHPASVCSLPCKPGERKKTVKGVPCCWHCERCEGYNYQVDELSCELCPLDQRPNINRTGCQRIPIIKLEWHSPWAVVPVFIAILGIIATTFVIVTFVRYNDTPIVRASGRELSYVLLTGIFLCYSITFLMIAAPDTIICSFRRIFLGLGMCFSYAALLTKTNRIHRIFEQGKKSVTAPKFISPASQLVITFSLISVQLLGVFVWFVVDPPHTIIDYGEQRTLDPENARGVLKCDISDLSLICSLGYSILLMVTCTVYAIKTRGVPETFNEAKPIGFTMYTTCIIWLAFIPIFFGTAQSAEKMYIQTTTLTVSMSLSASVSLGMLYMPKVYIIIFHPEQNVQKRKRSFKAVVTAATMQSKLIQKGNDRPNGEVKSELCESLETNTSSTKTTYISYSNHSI
Turning to `Cc1cc(C)n2c(SCc3ccc(Cl)cc3Cl)nnc2n1`, the z-score was -0.367.

The molecule `Cc1nc([N+](=O)[O-])cn1-c1ccc(N)cc1` came in with a z-score of -0.174.

`C=CCOc1c(Cl)cc(/C=N/O)cc1OC` came in with a z-score of -0.49.

On to `c1cn(C23CC4CC(CC(C4)C2)C3)cn1`, for which the z-score was active: 4.17.

Take `Cc1cccc(NC(=O)C(C)N2C(=O)C3C4CC(C(Br)C4Br)C3C2=O)c1` (configuration not stated): the z-score amounted to 0.0214.

`CCOc1cc(C=C(C(=O)OC)C(=O)OC)ccc1OCc1ccc([N+](=O)[O-])cc1`: the z-score is -0.0266.

`O=C(O)CCSc1nc2ccccc2c(=O)[nH]1`: the z-score came to 0.336.

With `COc1ccc(CN2CC(C(=O)NCCCOC(C)C)CC2=O)cc1` (configuration not stated), the z-score was 0.143.

In turn, `Cc1nc2ncnn2c(N2CCN(C(=O)Cc3cccs3)CC2)c1C` showed a z-score of -0.403.

Consider `Cc1ccc(C(=O)NCCSc2ccc(Cl)cc2)cc1[N+](=O)[O-]`, for which the z-score was -1.25.

`Cc1nc(N2CCC(C)CC2)c2c(C)c(C(=O)O)sc2n1` registered a z-score of -0.0467.

In turn, `COC(=O)CSC1=C(C#N)C(c2cccc(OC)c2)CC(=O)N1` (configuration not stated) registered a z-score of 0.085.

For `COc1ccccc1C(=O)n1nc(-c2ccccc2)nc1N`, the z-score was -0.265.

`CC(C)(C)OC(=O)N/N=C\C=C\c1ccc2c(c1)OCO2`: the z-score is 0.189.

The molecule `O=C(O)CCC(=O)Nc1ccc(F)cc1` came in with a z-score of 0.743.

For the molecule `CC(=O)NC1(c2cccc(F)c2)CCN(C(=O)Nc2ccc(C#N)cc2)CC1`, the z-score is -0.389.

As for `COCCn1nnnc1C(c1cc2cc(C)cc(C)c2[nH]c1=O)N1CCN(c2ccccc2F)CC1` (configuration not stated), the z-score stood at 0.0225.

In turn, `O=C(N1CCOCC1)N1CCN(C(=O)N(c2ccccc2)c2ccccc2)CC1` displayed a z-score of -0.217.

For the molecule `O=C(Cc1cccs1)Nc1ccc(-c2nnn(CC(=O)N3CCOCC3)n2)cc1`, the z-score is -0.736.

With `Cc1cc(SCCC(=O)O)nc2c(C)cccc12`, the z-score was 0.621.

Molecule `Cc1ccnc(NC(=O)COC(=O)C2COc3ccccc3O2)n1` (configuration not stated) registered a z-score of -1.63.

On to `COc1ccc(N2C(=O)C3CCCN3C2c2ccccc2F)cc1` (configuration not stated), for which the z-score was -0.777.

For the molecule `CC(C)(C)n1nc2c(c1NC(=O)c1cccs1)CS(=O)C2` (configuration not stated), the z-score is 0.235.

Consider `COc1ccc(OC)c(NC(=O)CC(Cc2ccccc2OC)C(=O)O)c1` (configuration not stated), for which the z-score was -0.255.

In the case of `Cc1ccnc(NC(=S)NC(=O)c2cncc(Br)c2)c1`, the z-score stood at 1.25.

The molecule `CCOc1ccc(C2=CS/C(=C(\C#N)c3nnc4n3CCCCC4)N2CC)cc1` showed a z-score of -2.45.

Molecule `CCn1ccc(=N)cc1` yielded a z-score of -0.08.

`CN(C)S(=O)(=O)c1ccc(C(=O)Nc2cccc(C(=O)O)c2)cc1` yielded a z-score of -0.0406.

As for `C[n+]1cc(-c2ccccc2)n2c1CCCCC2`, the z-score was found to be 0.679.

Turning to `CCOC(=O)c1cnn(-c2nc3c(C)cccc3s2)c1C`, the z-score is -0.112.

`Nc1cc(OC(=O)c2cccs2)nn1S(=O)(=O)c1ccccc1`: the z-score was -0.719.

For the molecule `COc1ccc(CCN(C)C(=O)C2CCCN(Cc3ccc(OC)c(OC)c3)C2)cc1OC` (configuration not stated), the z-score was -0.269.
